Laboratory results reported in patent US11155542B2, “Antimicrobial compounds, their use for the treatment of mammalian infections and a new metabolic mechanism” (priority 2016, dated 2021).

Assay: Chemical stability and solubility of Meisenheimer complexes and methylated derivatives
Details: in particular in the presence of atmospheric oxygen

SMILES: C[C@H]1COC2(CCN(C3=NC(O)=C4CC(C(F)(F)F)=CC([N+](=O)[O-])=C4S3)CC2)O1 [Compound 5b]
- Stability of 5b in solution: Rapid oxidation occurred in solution
